Laboratory results taken from the supplement of paper PMC3334620.
The full ranking holds about 33,000 sequences; the median of “E-score (-0.5 to 0.5)” is about -0.056, and the highest 2% start at about 0.38. This is one part of the list.

molecular target: Stb4 (UniProt P50104); assay: PBM E-score (8-mer binding enrichment) (E-score (-0.5 to 0.5)); higher = stronger / more preferred TF binding; most listed sequences are background and not binding sites; settings: protein concentration: 200 nM; construct: GST-DNA-binding domain
Description: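 Universal 'all 10-mer' protein binding microarrays (Agilent AMADID 015681) probed with GST-tagged S. cerevisiae TFs (full-length or DBD) made by in vitro transcription/translation (PURExpress), about 100-200 nM. Bound TF was detected with fluorescent anti-GST. Each ungapped 8-mer (which stands for itself and its reverse complement) is scored by the PBM enrichment score (E-score), a modified Wilcoxon-Mann-Whitney statistic from -0.5 to +0.5, computed with the Universal PBM Analysis Suite. Scale: above 0.35 generally sequence-specific binding.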

Sequence | PBM E-score
CGATACCC | 0.0781
AATAACGA | -0.0674
AGTGTTCG | 0.0766
AATTGAAT | -0.058
CCACCACC | -0.04
ATCCGCGG | 0.33
GTGACCCA | -0.146
CTACCACC | -0.137
CGTGCACG | 0.0126
GATGTTTA | 0.0736
ATAATAGA | -0.117
CGACCACC | -0.00731
CTCCGTTC | 0.221
AATCTAGC | -0.202
TAGCATCA | -0.0485
TCCCAAAA | -0.00583
GCATCAGC | 0.00943
CACAGACC | 0.141
CAAGCAGG | -0.0856
AATCTGAA | -0.0773
ACGGCCAA | 0.11
CGTCTCGC | -0.226
AGCAACTC | -0.0301
TCATAACA | -0.0654
CCTTACGA | -0.134

Sequence | PBM E-score
ATCTCTAA | 0.0304
TAAAATTA | 0.0275
AGAACCCG | 0.244
ATTTATCC | 0.28
CACATAGA | -0.112
CACTCTCA | -0.322
GAAATTAA | 0.108
ACAGATCA | -0.0491
GGCGTGGA | -0.109
ACCTCTTA | 0.115
AAAGGCTC | -0.0215
TCTCACAA | 0.00236
CTGATTCA | -0.0464
GACTATCA | -0.18
ATCAAAAC | 0.0232
CGTCGATA | -0.0539
CAGTTGGA | -0.223
ATCAGACC | -0.0587
GATGTAGC | -0.0132
GGAAGTCC | 0.23
AATGAGCT | -0.089
ATCGCAAC | -0.224
AATATGCA | 0.00873
ACTGGTCG | -0.106
GACAGCAA | -0.149

Sequence | PBM E-score
CGGTAAAG | 0.301
ACTCAAGC | -0.0831
GATCGCAC | -0.218
CTGGACCC | -0.159
ACGATCTA | -0.299
CCCTGATA | -0.297
GAAGAGTC | -0.0545
ACGGATGG | 0.324
CATTGCCC | 0.00597
ATGTTAAA | -0.0583
AGTAATCC | -0.0235
AGGGCGAG | -0.18
ACGAGGGC | -0.0578
GCCTCATA | 0.0577
AGTGAACG | -0.164
CCATAGTA | -0.0334
CTGCTACC | -0.16
CAATTACC | 0.0582
ATTCTCGA | -0.194
GCTTAGTA | -0.213
ATCGTGAC | -0.0813
AGCGATTC | -0.0623
ATTTTATC | 0.106
AGAGGCCC | -0.13
GCCAACCC | 0.045

Sequence | PBM E-score
GAGGTTAA | -0.0636
ACGCTACC | 0.00891
AAATACGA | -0.0719
ACTCCTTG | -0.0792
GCCATCGA | -0.0613
CAGGAGGC | -0.125
CGGCAAAA | 0.297
CACGAGGC | -0.131
GGGGTCCA | -0.189
CAAGGTAG | -0.106
ACGAGGCA | -0.238
CGGTCGTA | 0.128
GCAAAAGC | -0.0143
CTTCGGTC | 0.234
ATCTAAAT | 0.0781
CTTTCGCA | -0.136
AACTAAAC | -0.0477
CGCCGGAG | 0.168
CGTGTGAG | -0.119
CATCGACC | -0.0244
AAAACTCA | -0.0483
ACGGCACT | 0.0755
GAATGATA | 0.0409
AAGCAATT | -0.0575
AGATGTGA | 0.134

Sequence | PBM E-score
TATGAAGA | -0.0238
GCATTTTA | 0.0291
CTTACGCC | -0.0253
TACATCGA | -0.13
ATCGGGTA | 0.419
AGGAATCC | -0.042
CCAGTTCG | 0.0945
CAGGCCCA | -0.244
ATCGAAAC | 0.116
GTACCAAC | 0.0329
CCTGCGCA | -0.235
GCCTAAAA | -0.262
ACGCTGAC | -0.172
CCGTCCTA | -0.0174
ACAGCTAT | -0.282
ACGCGTTG | -0.171
GCTGTTAA | 0.0582
CAGTGACG | 0.0436
AAGATTGG | -0.0776
GGCACGAC | -0.0989
AAATTCTG | -0.0973
ACCTAGTG | -0.29
CAACTTCC | 0.238
AGAGACTA | 0.0641
CACAGCTC | -0.18

Sequence | PBM E-score
AAATGCAG | -0.233
GCGCCATA | -0.0762
AGTTTGCA | -0.0788
TCTTGCCA | -0.235
TCAGGGAA | -0.15
CACAGATC | -0.0337
AATGGGTC | -0.125
CGTCGTAA | -0.0721
CCGATCCC | 0.34
CATTCACA | -0.252
ACTTGCTC | -0.13
CTCTTCTC | -0.0938
CCCAGGCG | -0.0367
ACCATAAT | -0.0952
CATGTTTA | -0.12
AAAGACAA | -0.0914
ACCTGTTC | 0.0787
CACAGTGA | -0.235
AACGGTTC | -0.0248
CATGTGGG | -0.186
GTCAGTTA | -0.0826
AGCACAAT | -0.25
ACACCATC | -0.197
GTAATAAA | 0.034
CCGGCAAA | 0.341

Sequence | PBM E-score
ATCTACTG | -0.143
GCACGTTA | -0.206
ACCGACGT | 0.203
AGTGAACA | -0.166
TGGTCGAA | -0.346
TAGAAATA | -0.0635
GATTTGTA | -0.0917
CGCTTTAG | -0.111
GTTGTTGA | -0.191
AGAATGCC | -0.0558
GGAACTGA | 0.208
ACGGATAG | 0.381
ATGTAAGG | -0.022
CGCTTCTC | 0.107
GACTAATA | -0.112
CCAGAGCC | -0.174
CAGCGTCG | -0.0719
ACGGCCGA | 0.227
GATCTATA | 0.0128
CTGGCCAC | -0.17
ACCTGTCC | -0.0253
AGTTAGCC | 0.046
